Single values of this set are uncertain.
Assay: amyloid nucleation score relative to library mode (yeast Sup35 reporter selection) (log enrichment difference); higher = more amyloid nucleation; sequences are the first 22 residues of the Bri2 peptide extended by up to 12 random residues
Conditions: random library (experiment): 1;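 active = nucleation score significantly above 0 at FDR 0.05; inactive = not significantly above 0 or absent from output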
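Also: [psi-pin-] Saccharomyces cerevisiae expressing SupN fusions, induced by 100 µM Cu2SO4, selected 7 d at 30 °C without adenine and uracil, scored by deep sequencing of output versus input.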

Sequence	amyloid nucleation score
EASNCFAIRHFENKFAVETLICLSEDANVDVGRR	inactive
EASNCFAIRHFENKFAVETLICLEVTRAEQCRRW	2.3
EASNCFAIRHFENKFAVETLICEDWRGE	inactive
EASNCFAIRHFENKFAVETLICHSWVGRVRGLVR	inactive
EASNCFAIRHFENKFAVETLICGTSRQGSSGHCV	inactive
EASNCFAIRHFENKFAVETLICVSHSRLIMCPRL	inactive
EASNCFAIRHFENKFAVETLICGPSPSNNVASEG	inactive
EASNCFAIRHFENKFAVETLICLWLCVMSVGCNR	3.75
EASNCFAIRHFENKFAVETLICYACGSDW	8.27
EASNCFAIRHFENKFAVETLICCQHQYMTCYCSV	4.77
EASNCFAIRHFENKFAVETLICLPGCGPYCSDSA	7.97
EASNCFAIRHFENKFAVETLICRIGLR	inactive
EASNCFAIRHFENKFAVETLICHLNCTYYAGVER	8.12
EASNCFAIRHFENKFAVETLICECLARIMVDSGV	inactive
EASNCFAIRHFENKFAVETLICKISSDKLASFLL	-0.0194
EASNCFAIRHFENKFAVETLICNVRLIKSHVMAD	inactive
EASNCFAIRHFENKFAVETLICCGWALIPCGWTG	6.88
EASNCFAIRHFENKFAVETLICVGMDFSVPSDHR	inactive
EASNCFAIRHFENKFAVETLICLVGVSPCAKGAL	4.5
EASNCFAIRHFENKFAVETLICDL	inactive
EASNCFAIRHFENKFAVETLICYELWAKGTWLGV	inactive
EASNCFAIRHFENKFAVETLICCEFSGGLSSVRT	4.21
EASNCFAIRHFENKFAVETLICGYD	inactive
EASNCFAIRHFENKFAVETLICCYSGWLDGGRRQ	8.94
EASNCFAIRHFENKFAVETLICVCHSVRMASAPR	2.7
EASNCFAIRHFENKFAVETLICVRHRLHVARV	inactive

Sequence	amyloid nucleation score
EASNCFAIRHFENKFAVETLICWVFRVRFHDRKP	inactive
EASNCFAIRHFENKFAVETLICAGQRTACPYLKV	-0.0194
EASNCFAIRHFENKFAVETLICYSFTWVTWTWSR	inactive
EASNCFAIRHFENKFAVETLICGIELSPDLGQCV	inactive
EASNCFAIRHFENKFAVETLICCSG	2.18
EASNCFAIRHFENKFAVETLICAGPLASTVVG	inactive
EASNCFAIRHFENKFAVETLICRARGHGGRARYW	inactive
EASNCFAIRHFENKFAVETLICWKVMRKCWRIIT	inactive
EASNCFAIRHFENKFAVETLICKECTALASATEW	inactive
EASNCFAIRHFENKFAVETLICNRLGNLSNRIGL	inactive
EASNCFAIRHFENKFAVETLICLFCWHCPNEPGR	7.61
EASNCFAIRHFENKFAVETLICFL	8.21
EASNCFAIRHFENKFAVETLICYALGVEDGSALM	4.7
EASNCFAIRHFENKFAVETLICVARNAPTVRRVR	inactive
EASNCFAIRHFENKFAVETLICGGVDSVSTGLEP	inactive
EASNCFAIRHFENKFAVETLICVNSSGLS	inactive
EASNCFAIRHFENKFAVETLICESFAFVTTVCAA	inactive
EASNCFAIRHFENKFAVETLICEMGVTCHHIRRR	2.81
EASNCFAIRHFENKFAVETLICTCYLCVQYYRWL	inactive
EASNCFAIRHFENKFAVETLICILSVMNLFHVF	inactive
EASNCFAIRHFENKFAVETLICRIGVLCGMVCSL	inactive
EASNCFAIRHFENKFAVETLICDACKHRRERYYC	inactive
EASNCFAIRHFENKFAVETLICRACQTVRGRT	inactive
EASNCFAIRHFENKFAVETLICKSFLW	1.61
EASNCFAIRHFENKFAVETLICIAQPGVLMMCSQ	4.61
EASNCFAIRHFENKFAVETLICPVDRCPSRLDMA	2.78

Same assay, conditions: random library (experiment): 2

Sequence	amyloid nucleation score
EASNCFAIRHFENKFAVETLICLNVTNASSFDSV	6.53
EASNCFAIRHFENKFAVETLICLTFTMYCSCKNT	5.99
EASNCFAIRHFENKFAVETLICGVESNVVSPGMA	4.25
EASNCFAIRHFENKFAVETLICKLSAVSFIAMRV	inactive
EASNCFAIRHFENKFAVETLICFFIWGSGSVSMG	-0.00995
EASNCFAIRHFENKFAVETLICECFIFGILSLGT	inactive
EASNCFAIRHFENKFAVETLICMRMEYSVLGLRL	inactive
EASNCFAIRHFENKFAVETLICRHFLGMGDSAEY	inactive
EASNCFAIRHFENKFAVETLICVTFQKPN	inactive
EASNCFAIRHFENKFAVETLICIVDFTNVFGLAR	4.85
EASNCFAIRHFENKFAVETLICFCWDNQLCESKG	inactive
EASNCFAIRHFENKFAVETLICKE	inactive
EASNCFAIRHFENKFAVETLICMHYYAVYHSPSQ	4.39
EASNCFAIRHFENKFAVETLICRVFIRLFLRMSG	inactive
EASNCFAIRHFENKFAVETLICPVITLSHLYLNL	6.19
EASNCFAIRHFENKFAVETLICNGYTMEG	inactive
EASNCFAIRHFENKFAVETLICCI	4.77
EASNCFAIRHFENKFAVETLICFTWCIQHTLMKC	inactive
EASNCFAIRHFENKFAVETLICWFFPYYIRLG	-0.476

Sequence	amyloid nucleation score
EASNCFAIRHFENKFAVETLICVYLFRDTDEPWL	6.13
EASNCFAIRHFENKFAVETLICDINVAFIVALLL	inactive
EASNCFAIRHFENKFAVETLICYAAAIVNKVSV	inactive
EASNCFAIRHFENKFAVETLICNVCEQSLNRVVL	3.01
EASNCFAIRHFENKFAVETLICLSSC	3.78
EASNCFAIRHFENKFAVETLICVCDCPLNRCKKN	8.25
EASNCFAIRHFENKFAVETLICLAGSYWDIEPVN	inactive
EASNCFAIRHFENKFAVETLICFNVPYSKTSSGV	2.47
EASNCFAIRHFENKFAVETLICDFLNT	inactive
EASNCFAIRHFENKFAVETLICVHHRYLNQHWDV	inactive
EASNCFAIRHFENKFAVETLICVCCKAERTVNRE	6.13
EASNCFAIRHFENKFAVETLICLAIGCGIHRIFS	6.62
EASNCFAIRHFENKFAVETLICGPAASGVRSGGW	inactive
EASNCFAIRHFENKFAVETLICELIMGAILRSGK	inactive
EASNCFAIRHFENKFAVETLICIYLHCLASMSSK	inactive
EASNCFAIRHFENKFAVETLICYTLKVIMDNGCQ	inactive
EASNCFAIRHFENKFAVETLICCRSPVTM	inactive
EASNCFAIRHFENKFAVETLICVHHMPVRPCNGR	inactive
EASNCFAIRHFENKFAVETLICIYGCVIHSRG	inactive

Same assay, conditions: random library (experiment): 3

Sequence	amyloid nucleation score
EASNCFAIRHFENKFAVETLICPPQGWNLRLTQP	inactive
EASNCFAIRHFENKFAVETLICYRTFEWWLAHAW	inactive
EASNCFAIRHFENKFAVETLICKTGMKSGFRRVS	inactive
EASNCFAIRHFENKFAVETLICGRWIGGDVQTVV	inactive
EASNCFAIRHFENKFAVETLICCEV	inactive
EASNCFAIRHFENKFAVETLICPNRFTSSDRASI	inactive
EASNCFAIRHFENKFAVETLICLFVVRGLCRVPR	inactive
EASNCFAIRHFENKFAVETLICRQCKRMRVWTRC	inactive
EASNCFAIRHFENKFAVETLICCGRSTRKDAPSE	5.98
EASNCFAIRHFENKFAVETLICRMRANIVLFGSC	inactive
EASNCFAIRHFENKFAVETLICLKAVLGGWGLQR	inactive
EASNCFAIRHFENKFAVETLICLRRSGSTVPDAA	inactive
EASNCFAIRHFENKFAVETLICVQLYCT	3.68
EASNCFAIRHFENKFAVETLICPRFR	inactive
EASNCFAIRHFENKFAVETLICLCPTGLMDRPEC	8.43
EASNCFAIRHFENKFAVETLICGRRWAGSNRPRW	1.25
EASNCFAIRHFENKFAVETLICRLRLRSGAVRGA	inactive
EASNCFAIRHFENKFAVETLICMPWERL	3.53
EASNCFAIRHFENKFAVETLICGLR	inactive
EASNCFAIRHFENKFAVETLICFPHDFRSDVGAA	0.721
EASNCFAIRHFENKFAVETLICLCVSLGVFECWA	inactive
EASNCFAIRHFENKFAVETLICHDVADSTRVLGD	inactive
EASNCFAIRHFENKFAVETLICGRNSSVL	inactive
EASNCFAIRHFENKFAVETLICQVEGMDTGSALR	inactive
EASNCFAIRHFENKFAVETLICTPGERWFWYMNV	inactive
EASNCFAIRHFENKFAVETLICLMGCKLFVAVTL	inactive
EASNCFAIRHFENKFAVETLICWDRCNSTVIWFG	1.33
EASNCFAIRHFENKFAVETLICRLFRMLFSGHCG	inactive
EASNCFAIRHFENKFAVETLICCIDDPMSRVKGR	-0.0612

Reference: the supplement of paper PMC12067230
